From PMC12136788
Some of the results follow.

T1: UNK ZnF1-3 (human, UniProt Q9C0B0 31-174)
T1 sequence: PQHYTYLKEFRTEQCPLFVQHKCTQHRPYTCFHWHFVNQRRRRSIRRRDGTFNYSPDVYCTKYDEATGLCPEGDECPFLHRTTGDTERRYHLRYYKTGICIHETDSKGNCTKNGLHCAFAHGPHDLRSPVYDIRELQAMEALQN

B1: 66471940_66472060_1036_CDS_ENSMUSG00000015222_ENSMUST00000077355|mouse|control|control (ssRNA)
RNA: GGGAGUUCUACAGUCCGACGAUCGAUUUUGGACUUGACAUUCUUCAGGUCCGGCAGUGGUUGGUUAAUAAGCCGAAGCUGCUUAGGAGUAGCUGGGGACUUUGGAGGAGUGCGGAUGAUGGCAACUUUCUUCUCACUGGGCACCAACAGAGGAUUGAGCAUCA
B2: chr2:166753246:166753247:+_ENSMUSG00000002718_ENSMUST00000002790|mus_mus|motif|central (ssRNA)
RNA: GGGAGUUCUACAGUCCGACGAUCAAACAGAUUCUUAUAAUGUGGCCUUUCACAAACUGAAGCCAGAAACUGAAUUGCAUUGCGGACCAACAAGUCAUAUUUAACUUCUCGCCCUGUUGUAACGAGUAAGUUCCAGAUAGCUGUCAACAGAGGAUUGAGCAUCA
B3: chr9:95013113:95013114:-_ENSG00000196305_ENST00000443024|hu_hu|hu_hu_hu_mus_False|8_18 (ssRNA)
RNA: GGGAGUUCUACAGUCCGACGAUCCUCAGUCAGAAAGGGCGUGUAAGGGGCCAUCAGUCUGCACAGAGAAAGCAGGACACUGAACAGUGUCUCCAGAGCCAUGACACAGUCUUCCACCCCAUUUUCACCCUUUAAUCUCCUCCUCAACAGAGGAUUGAGCAUCA
B4: 89226026_89236121_890_CDS_ENSG00000065243_ENST00000370521|human|control|control (ssRNA)
RNA: GGGAGUUCUACAGUCCGACGAUCUGCCUGAAGAAUCUGCAUUCGUAUGACUUCUAUUUUUGUCUUGCUGUCCUGGAGCAGUUGCUGAGCUGUACCAUGGAGUUUCCGAUCCUUUGAAGAUCCAUUUGAAUACAUCUGUAUCAUCAACAGAGGAUUGAGCAUCA
B5: chr18:56819859:56819860:+_ENSG00000166562_ENST00000588875|hu_mus|hu_hu_hu_mus_True|8_8 (ssRNA)
RNA: GGGAGUUCUACAGUCCGACGAUCAACCUUGAUUACUCUGUGAACUAUCGGAAUGUCUCUUCCUUCAACCUUAAAAACAACUAUUUCACCAGCUCUGAUGGGGUCCUCCCGGAAAUUCGUGAGGAACAGGAGGUCUCCUCUGUGCAACAGAGGAUUGAGCAUCA
B6: chrM:14062:14063:+_ENSG00000198786_ENST00000361567|hu_hu|motif|central (ssRNA)
RNA: GGGAGUUCUACAGUCCGACGAUCGUGAUGAUGGAGGUGGAGAUUUGGUGCUGUGAAAUUGUUUUAGGUAAUAGCUUUUCGGGUCAGGUUAGGUCUAGGAGGAGUAGGGGCAGGUUUUGGCUCGUAAGAAGGCCUAGAUAGGGGCAACAGAGGAUUGAGCAUCA
B7: 126749318_126751576_781_3pUTR_ENSMUSG00000027366_ENSMUST00000028844|mouse|control|control (ssRNA)
RNA: GGGAGUUCUACAGUCCGACGAUCGUCUUCCACUGACUUCAUGUUUUCCAAUUCAAUAAGUCCACUCCAGUAUCCUCCUAAGGCCACAGUGAACACAGCAAUUACAAAAAUAACCACCAGAGUAUAGUCAAAGUUAGGCCAGGACAACAGAGGAUUGAGCAUCA
B8: chr8:95500983:95500984:-_ENSG00000164944_ENST00000437199|hu_hu|hu_hu_hu_mus_True|78_88 (ssRNA)
RNA: GGGAGUUCUACAGUCCGACGAUCAGAACACAUCUAUCGAGUAAAGGGAGCGUACAUGACGACCUCUCCACUGCCUCCACUAACAAACUUUCCUCUCGAGCCUCCACUGCCGCUAUUUGUACUAGCCCAGGACGGUCCCAGGCCCAACAGAGGAUUGAGCAUCA
B9: chr3:35992786:35992787:+_ENSMUSG00000027710_ENSMUST00000011492|mus_mus|FALSE|FALSE (ssRNA)
RNA: GGGAGUUCUACAGUCCGACGAUCAAAAAUGGAGCAGAUACCGAAAGAAAGGUCAUCCAGAGAUGGGCCCAAUUUGCAAUCUAUCCUAUGUAAAGGCACCAAACACCAACACUAUUACUGCUGUGUUUGCAGAUAGGAGCCCAGCAACAGAGGAUUGAGCAUCA
B10: chr4:54294246:54294247:+_ENSG00000145216_ENST00000306932|hu_hu|motif|central (ssRNA)
RNA: GGGAGUUCUACAGUCCGACGAUCUGGAGGAGGUGGAAGGUGAGUGGGAGGAGCUCCUGGAGGGAAAAACGGAGGUGGUUUGCGGAAAUUGUUGUCUACUUCAGUAGCAGAUCUUUCAGAAAGGACCUGUAUGUUGCUGUUCUCCAACAGAGGAUUGAGCAUCA
B11: chr1:46067948:46067949:+_ENSG00000132780_ENST00000351223|hu_hu|FALSE|FALSE (ssRNA)
RNA: GGGAGUUCUACAGUCCGACGAUCUUCCUGGAAUGCAUUGACAGCUGCUGGAAUAUCCCCCAUCACCAGAUGUUUCUGUCCUAAACCCAAUAGUUUCUUAGCUUCACUAUCCACAUCCAGACUCUCCACUUUAUCUGCAGAUGUCAACAGAGGAUUGAGCAUCA
B12: chr18:51681570:51681571:-_ENSG00000134046_ENST00000256429|hu_hu|motif|central (ssRNA)
RNA: GGGAGUUCUACAGUCCGACGAUCGAUAUAUACAUCAAAAAUACAUCUAAAAAGGCAUUGGUUAGUGCUAUUAAAAAGCUCGGUGUGCUCGGGUACAUUUUUUUUCUUACAGGCAAAAGCCAGUGGAAACAUUUUUGUUCAAUUCAACAGAGGAUUGAGCAUCA
B13: chr15:5129413:5129414:+_ENSMUSG00000050697_ENSMUST00000051186|mus_hu|FALSE|FALSE (ssRNA)
RNA: GGGAGUUCUACAGUCCGACGAUCAAAACAAAGAGGGAGGGAUAUGGAAGAAGUUAUCCAGACUGUUACUACUGCUGGAAGAUACUAGCUAUUUAUGAAGUUAAGGAGCCCAGAAAACAAAAUCACCUAUAAAGGUCUUGGGAACAACAGAGGAUUGAGCAUCA
B14: chr1:55207850:55207851:+_ENSMUSG00000025979_ENSMUST00000162364|mus_hu|motif|central (ssRNA)
RNA: GGGAGUUCUACAGUCCGACGAUCCCGAUGAUGAAAAUAAGCAUGUGAAAAUAUUCUGUAAAUCCUACGGCAUACUGAUCCGGGUUUCGCUACAGAUGAUUCCUUUAUGCUAACCCUGCUGGGAAAAUAUUUAUUGCUAUUCAGCAACAGAGGAUUGAGCAUCA

What follows are binders tested against T1, UNK ZnF1-3 (assay: nsRBNS (natural sequence RNA bind-n-seq); RBNS binding buffer (assumed for nsRBNS): 25 mM Tris pH 7.5, 150 mM KCl, 3 mM MgCl2, 0.01% Triton X-100, 500 ug/ml BSA, 20 U/ml SUPERase-In, 4 C; UNK is unkempt and MSI1 is Musashi-1; names of the RNAs are library labels; protein concentration not given here; high values mean tight binding).

Binder | binding signal
B1 | 0.858 enrichment R
B2 | 0.905 enrichment R
B3 | 1.12 enrichment R
B4 | 0.509 enrichment R
B5 | 0.786 enrichment R
B6 | 2.77 enrichment R
B7 | 1.32 enrichment R
B8 | 1.44 enrichment R
B9 | 1.21 enrichment R
B10 | 1.36 enrichment R
B11 | 0.915 enrichment R
B12 | 1.06 enrichment R
B13 | 1.8 enrichment R
B14 | 1.25 enrichment R
